Assay results from the supplement of paper PMC10681739.
The full ranking holds about 4,100 sequences; the median of “arbitrary fluorescence units” is about 780, and the highest 2% start at about 22,000. Some of the results follow.

Each sequence was assayed against T1, ETS1 (UniProt P14921) (assay: ETS1 binding intensity (PBM fluorescence), ETS1 alone (arbitrary fluorescence units); higher = stronger binding). Conditions: ETS1 concentration 1 nM; RUNX1 concentration 0 nM.
T1 sequence: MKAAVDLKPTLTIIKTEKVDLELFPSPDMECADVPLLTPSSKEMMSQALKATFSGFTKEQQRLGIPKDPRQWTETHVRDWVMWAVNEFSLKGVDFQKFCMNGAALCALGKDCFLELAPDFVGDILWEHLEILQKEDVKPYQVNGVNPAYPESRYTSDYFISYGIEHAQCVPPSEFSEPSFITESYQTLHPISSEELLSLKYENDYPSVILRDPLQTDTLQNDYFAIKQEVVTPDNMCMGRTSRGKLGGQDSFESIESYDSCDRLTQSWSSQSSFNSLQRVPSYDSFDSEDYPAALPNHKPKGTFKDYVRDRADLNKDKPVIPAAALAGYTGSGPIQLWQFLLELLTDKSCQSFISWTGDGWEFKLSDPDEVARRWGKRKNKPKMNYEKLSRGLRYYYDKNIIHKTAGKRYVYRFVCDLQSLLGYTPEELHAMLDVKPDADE
Method: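 gcPBM on 36-bp genomic-derived probes (partner site mutated) containing one ETS1 site and no RUNX1 site. Recombinant human ETS1 (1 nM) was incubated alone or with RUNX1 (25 nM) and detected by anti-ETS1 antibody fluorescence. Values are medians over 4 replicate spots (not normalised). The probes sit in constant array flanks that are not printed.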
For TTTCTCTGGCTGGACAGTTGGAGAAATGAGGAAGTT, the ETS1 binding intensity was 373. GAAATCACACCAGCAAGCTTAAGTACAGGAAGAATA showed an ETS1 binding intensity of 424. Work on TCAAGTGTTTATCACTGGGTCACCAGGAAGTGGCTT yielded an ETS1 binding intensity of 514. AAGACCGGCCGTAAACCAGCAAGATGGCGTCCGGCC showed an ETS1 binding intensity of 340. In the case of ATTTGGCGCCCGCCGTAAAGCGCGGATGCGCGGCGT, the ETS1 binding intensity is reported as 357. ACAGTCGCACCGGAAGCTGCCCGAGGTGTTGACACA gave an ETS1 binding intensity of 9810. TCATTGGGGTTTCTGAAGCACACAGGAAGTCAGAAA showed an ETS1 binding intensity of 1890. With TCGCATATGGCTCTGGGAGGAGGAAGGGAGGCCCAG the ETS1 binding intensity was 341. For TCGGGGAAAGAGCGCTTCAGGTGCTTCCGTCGCTCC, the ETS1 binding intensity was 428. CATCTACTGAGGAAGTGTAAGCTACAATAAGAAGCC was tested, and the ETS1 binding intensity was 560. TACCAACAGGAATCTTTGGGGTCTAAACAGCAAACA showed an ETS1 binding intensity of 435. In the case of GATGTAGGTAAGAGAAGCAGGCACAGGATGCTGCCC, the ETS1 binding intensity is reported as 432. TGTGGCCAGCACGGAAGAGCCCCACCAGATGTGCTT showed an ETS1 binding intensity of 378. TGAGAAAACAGGAAGCGCCCAGTCACCAGAGAAAGC showed an ETS1 binding intensity of 6320. GCTTTGCAGTTTCCTCTGTGGAACACCAGACACAGT showed an ETS1 binding intensity of 2430. CTCTACTGCAGGCTGGCTAATCTTCGGAAACAAACA gave an ETS1 binding intensity of 428. AGGCTTGGGGCTAGACCAGGGTCTTCCTGCTGAAGA was tested, and the ETS1 binding intensity was 412. Work on ATGGGGTTGGGGCGGGAGCGTGCGTCCTTCCTGTGT yielded an ETS1 binding intensity of 826. In the case of TTCTTCCCCCTTCCGGTCGCTGAGTGGATGAGGCCG, the ETS1 binding intensity is reported as 16600. CTGTGACTTTTGGGGTGGGGGAGGAAGAAGAGAGGG gave an ETS1 binding intensity of 816. CTCTGAACTTCCTCTCTTTTAACTACAACTTACTAC gave an ETS1 binding intensity of 4200. For GAAGATGCTGTCGTTGCATAGAGGAGGATATGAATC, the ETS1 binding intensity was 412. CCAGGAAGTTCAAACTGGGTGGAGCCCACCCCAGCT gave an ETS1 binding intensity of 469. CCCGGCCACTTCCGCCTATTGAGGGCGTCGGCTAGG was tested, and the ETS1 binding intensity was 18600. With CCCTCCTGGGGTATTGGAGACCGGAAGCACATAGTC the ETS1 binding intensity was 3540. AAAGCAAACAGGAAGTGCTGTGATAACAAGGCCCCA gave an ETS1 binding intensity of 12800. With AGGAGCCCACCCTCAGAGCTGTGATTTCCTGACTCG the ETS1 binding intensity was 419. Sequence GTGGGTAGGGAGGAAGCTGTGAAAGCACCTCCCCTC has an ETS1 binding intensity of 648. Work on ATTTTAGCATTTTCCTGCTCGGAGACAACATGTTTG yielded an ETS1 binding intensity of 1170. GCCCCGCCCCCGGACGCCCAGCCGCTGTCCCAGCGA was tested, and the ETS1 binding intensity was 358. For ATAACTCGCGGCAAATGCTGGAGGAAGTACCGCCTT, the ETS1 binding intensity was 376. In the case of TGAAAGCTCAGATATCTGGCCACCAGGAAATGCTGT, the ETS1 binding intensity is reported as 375. AAAACAACTTCCTTCCCCTCTCTCTCCACCAGAGTC showed an ETS1 binding intensity of 3870. For CGGGGCGAAAGCACTGTTGGCTCATTTCCGGGTGGG, the ETS1 binding intensity was 1500. In the case of AAGAGGAAGTCCCAAATTGCTTTTTATCCACCAACA, the ETS1 binding intensity is reported as 764. Sequence GTTTATGGCAGGAAAGCCTGATAACCTACAAACCCT has an ETS1 binding intensity of 412. TCGTGAAAAAGGAAGTGGATAAAGTGGCTACGGCAA gave an ETS1 binding intensity of 3240. In the case of GCGCGGCCTGCAGCGCCACACAGTTTCCCGGGCGCC, the ETS1 binding intensity is reported as 323. GTCGCCTTCGGTGACTCAGCTCTTCCGGTCACCGCC gave an ETS1 binding intensity of 5110. In the case of AGGGTTTGTAGGTTATCAGGCTTTCCTGCCATAAAC, the ETS1 binding intensity is reported as 507. Sequence TGGAAGGCCGGAAAAGGTTTACCTCCACACTCCGGT has an ETS1 binding intensity of 2100. CAAGCCAGGAAGAGGGCCCTCACCAGAAACAGCACT gave an ETS1 binding intensity of 663. With GCCACGGTGGCTGCTATTTCTGCCGCTTCCTGTTCC the ETS1 binding intensity was 988. With GGGGTGCTGTTTAGGGCGGGTTTTTTCCGCCTTGGA the ETS1 binding intensity was 427. In the case of CATTTCACGTTCCGCTGACTTTCTCTGGGGCCCCAA, the ETS1 binding intensity is reported as 478. TAGGCTCCCGAGGTTCGGCCTTCCTCCCTCTGTGAC was tested, and the ETS1 binding intensity was 330. Sequence CTTACCTACAGTTCCGCTTGCTGTGATTTCAGTTAC has an ETS1 binding intensity of 1240. GGGGCTTGCTGCCGCTGAGCCGCCTTCCGCCCTCCC showed an ETS1 binding intensity of 506. CCCTCGGTGCTCGCCGCTGAGAGCTTTCCGGCCACG gave an ETS1 binding intensity of 421. CTGGGCCTCCCTTCCTCCTCCCAGAGCCATATGCGA gave an ETS1 binding intensity of 566. GTAGCCGATTTCCGATTGCCCGGCGCAGCTCCACCA showed an ETS1 binding intensity of 3790. Work on GCCCGCGGCTCCGGAAGCGGCTGCAGCCCCGACCGG yielded an ETS1 binding intensity of 2160. Work on GGGGAGGACGCGGAAGAGGAGCTGAGGGAAGGGGGA yielded an ETS1 binding intensity of 873. GCCCCTCTTCCTGACTCACACAGCCGCCTCTAGTCT gave an ETS1 binding intensity of 2110. Work on GGCCGCCGCTTCCCGTCCAGGGCCGTAGTCTGCCCG yielded an ETS1 binding intensity of 2450. For GTGCCTTGTAGTCAGGTGGCTGGGCAGGATGTTTCT, the ETS1 binding intensity was 438. GCCGGACCCTTCGGCCCCGGGACCGGACACCAGGCG gave an ETS1 binding intensity of 344. With GAGCCGGAAGTGAAGGAGGGCTTCTGGGAGATGGAG the ETS1 binding intensity was 9320. In the case of CACTTGGTCTTCCTGCCCTTGGGGCCCTAACACCCT, the ETS1 binding intensity is reported as 2540. Sequence ACTGTGCGTTGGGGTCGTCCGCCATCCGCTGCAGCT has an ETS1 binding intensity of 403. GCCCCACTTAGCGGCTGCGGATGAGCACGATGCGCA showed an ETS1 binding intensity of 302. In the case of TTTTTGGTCTCATGGAAAGAGCACAGGATGCAGAAT, the ETS1 binding intensity is reported as 480.
